About 11,000 (3.1%) of roughly 360,000 compounds were called active. Inconclusive results, whose numbers are uncertain, are shown with a selection of clear calls. Calls come from the whole dose curve; as a rule, active = well fitted inhibition curve with a large enough effect; inconclusive = small, poorly fitted or top-dose-only effect; inactive = no such curve, though single readings can be large or run the other way. No potency is given beside an inconclusive call; the fits are too rough.
Each compound was assayed against Schistosoma mansoni thioredoxin glutathione reductase (TGR) (UniProt Q962Y6) (assay: qHTS Assay for the Inhibitors of Schistosoma Mansoni Peroxiredoxins). Settings: purified TGR, DTNB reduction, TNB absorbance 405 nm; series mostly up to 114 µM.
Outline: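 First, TGR (20 nM dispensed) and NADPH were mixed with compound. Second, a 15 min room-temperature incubation followed. Third, further NADPH and then DTNB were added to start the reaction. Finally, TNB absorbance was monitored kinetically.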
Note: nearly all actives have a fitted effect of over 60% in size.
Potency is the fitted concentration of half-maximal effect; tags give direction and shape of the fitted curve.

Structure (SMILES)	Potency
O=C1CCN(Cc2ccccc2)S(=O)(=O)c2ccccc21	active: 20 µM
Cn1cccc1Cc1nnc(SCC(=O)Nc2nccs2)n1CCc1ccccc1	inconclusive [inhibitor, partial curve]
CN(CCc1ccccn1)C1CC(=O)N(c2ccc(Cl)cc2)C1=O (configuration not stated)	active: 10 µM
CCCCS(=O)(=O)CC(COc1ccccc1)OC(=O)c1ccccc1 (configuration not stated)	inconclusive [inhibitor, partial curve]
CCOC(=O)N1CCN(c2nc3c(C)cccn3c(=O)c2C=O)CC1	active: 39.8 µM
Cc1ccnc(NCc2c(O)ccc3ccccc23)c1	inconclusive [inhibitor, full curve, poor fit]
CC1(C)Cc2c(C#N)c(N3CCN(C(=O)c4ccccc4Cl)CC3)nc(-c3ccco3)c2CS1	active: 3.55 µM
O=c1oc(-c2ccco2)nc2sc3c(c12)CCCC3	inconclusive [inhibitor, partial curve, poor fit]
COC(=O)C(O)(c1ccc(NC(=S)NC(=O)c2ccccc2)cc1)C(F)(F)F (configuration not stated)	active: 28.2 µM
CC1CCN(C(=O)COC(=O)/C=C/c2ccc(Br)o2)CC1	active: 8.91 µM
C=CCN(CC=C)C(=S)Nc1ccc2nsnc2c1	inconclusive [inhibitor, single point]
N#C/C(=C\c1cccc(Br)c1)C(=O)N1CCCCC1	inconclusive [inhibitor, partial curve, poor fit]
COc1ccc(C)cc1S(=O)(=O)NCC(c1cccs1)S(=O)(=O)c1ccc(C)cc1 (configuration not stated)	inconclusive [inhibitor, full curve, poor fit]
CCOc1cc(C(=O)Nc2ccc(C)cc2C)ccc1OCC(=O)N1CCCCC1	inactive
COc1cc(O)c(C(CCN2CCCC2)c2ccc3c(c2)OCO3)c(OC)c1 (configuration not stated)	inactive
Cc1ccc(Cn2cc(C(=O)c3ccc(F)cc3)c(=O)c3cc4c(cc32)OCO4)cc1	inactive
Cc1nc2c3c4c(sc3n3c(SCC(=O)NCc5ccco5)nnc3n2n1)COC(C)(C)C4	inconclusive [inhibitor, partial curve]
COc1cccc2sc(N)nc12	inactive
Cc1cc(/C=C2\C(=O)NC(=O)N(c3ccc(Br)cc3)C2=O)c(C)n1-c1cc(C(=O)O)cc(C(=O)O)c1	active: 8.91 µM
COc1ccc(F)cc1C(=O)C1CCCN(C(=O)c2ccccc2N(C)C)C1 (configuration not stated)	inactive
Cc1ccc(NS(=O)(=O)c2ccc(C(=O)N3CCN(c4ccccn4)CC3)cc2)cc1	inconclusive [inhibitor, single point]
O=C(CSc1nnc2scc(-c3ccc(F)cc3)n12)NCc1ccco1	inactive
O=C(CCc1nnc(Cc2c[nH]c3ccccc23)o1)NC(C1CC1)C1CC1	inconclusive [inhibitor, full curve]
CCCc1nnc(NC(=O)c2cccc(OC)c2)s1	inactive

Structure (SMILES)	Potency
CN(C)c1ccc(C2CC(c3ccccc3)=Nc3nc(-c4ccccc4)cn32)cc1 (configuration not stated)	inconclusive [inhibitor, partial curve]
C#CCOCCOCCOCCNc1nc(N2CCN(C(=O)Cn3cc(CCCN=C(N)N)nn3)CC2)nc(N2CCN(C(=O)[C@H]([C@@H](C)O)n3cc(CCCCN)nn3)CC2)n1	inconclusive [inhibitor, single point]
Cc1c([N+](=O)[O-])c(C(=O)N2CCCC2)nn1C	inactive
Cc1ccsc1CN(C(=O)c1ccc(Br)cc1)C1CCS(=O)(=O)C1 (configuration not stated)	inconclusive [inhibitor, single point]
CCC(=NCc1ccco1)c1c(O)n(-c2ccccc2C)c(=O)[nH]c1=O	inconclusive [inhibitor, partial curve]
COc1ccc(NC(=O)Nc2ccc(Br)cn2)cc1	inactive
CCN1CCCC1CNC(=O)c1cc2c(=O)n(C)c3ccccc3c2n1C (configuration not stated)	active: 50.1 µM
COC(=O)CCc1c(COC(C)=O)[nH]c(C(=O)OCc2ccccc2)c1C	active: 3.55 µM
CCN1C(=O)/C(=C\C=C2/C=CC=CN2CC)SC1=S	inconclusive [inhibitor, full curve]
CC(=O)c1c(NCc2ccccc2)nc(=O)n(-c2ccccc2)c1C	inconclusive [inhibitor, single point]
COc1ccc(C(=O)O)cc1S(=O)(=O)Nc1cccc(C(F)(F)F)c1	inactive
Cc1ccc(CNC(=O)C2(C(F)(F)F)C/C(=C\Cc3ccccc3)CCCO2)o1 (configuration not stated)	active: 20 µM
Clc1nc2c(-c3ccccc3)nnn2c2ccccc12	inconclusive [inhibitor, full curve, poor fit]
CCN(Cc1ccncc1)Cc1nc(-c2ccc(C(=O)OC)cc2)no1	inactive
C/C(=N\OC(=O)Nc1ccc(Cl)cc1)c1ncc(C(F)(F)F)cc1N1CCOCC1	inconclusive [inhibitor, full curve]
S=c1[nH]nc(-c2ccco2)n1/N=C/C=C/c1ccco1	inconclusive [inhibitor, partial curve]
CCN1C(=O)[C@H]2[C@@H](c3ccc(-c4cccc(Cl)c4)cc3)N[C@@](C)(C(=O)OC)[C@H]2C1=O	inconclusive [inhibitor, partial curve]
CN(C)S(=O)(=O)c1cccc2c1C(=O)c1ccccc1C2=O	active: 25.1 µM
COc1c(O)ccc2c1CN1CCc3cc4c(cc3C1C2)OCO4 (configuration not stated)	inconclusive [inhibitor, full curve, poor fit]
COc1cccc(CNCCc2c[nH]c3ccccc23)c1	inconclusive [inhibitor, partial curve]
O=c1c(C(c2c(O)nc3n(c2=O)CCS3)c2cccc3ccccc23)c(O)nc2n1CCS2	inconclusive [inhibitor, full curve]
O=C(/C(Br)=C/Nc1cc(Cl)ccc1Cl)C(F)(F)F	active: 22.4 µM
Cc1cc(C)cc(C(=O)Nc2ccc(NC(=O)c3cccs3)cc2)c1	inactive
CC1=C(C(=O)Nc2ccccc2C)C(c2ccc(C)o2)C2=C(CCCC2=O)N1 (configuration not stated)	inconclusive [inhibitor, partial curve]

Structure (SMILES)	Potency
O=C1CC2(CCCC2)C(=O)N1CN1CCN(S(=O)(=O)c2ccc(Cl)c(Cl)c2)CC1	inconclusive [inhibitor, partial curve]
O=C(N/N=C/c1coc2ccc(Cl)cc2c1=O)c1ccncc1	inconclusive [inhibitor, partial curve]
CCc1ccc(CNC(=O)c2nn(-c3ccc(OC)c(Cl)c3)c(=O)c3c2c2ccccc2n3C)cc1	inconclusive [inhibitor, single point]
CC(C(=O)N(C)Cc1cccc(F)c1)N1CCN(S(=O)(=O)c2ccc3c(c2)OCCCO3)CC1 (configuration not stated)	inconclusive [inhibitor, partial curve]
O=C(CSc1n[nH]c(-c2ccccn2)n1)Nc1ccccc1	inconclusive [inhibitor, partial curve]
COc1cccc(C(CNC(=O)C2CCN(C(=O)Nc3ccccc3)CC2)N(C)C)c1 (configuration not stated)	inconclusive [inhibitor, partial curve]
Cc1ccc(Cn2nc(C)c(NC(=O)CCCn3nc([N+](=O)[O-])c(Cl)c3C)c2C)cc1	inactive
CN1C(=O)/C(=N/OC(=O)c2ccccc2)c2ccccc21	inconclusive [inhibitor, partial curve]
CCC1(C)NC(C(=O)O)Cc2c1[nH]c1ccccc21 (configuration not stated)	active: 35.5 µM
COc1ccc(OC)c(NC(=O)c2sc3nc(Cc4ccccc4)cc(C(F)(F)F)c3c2N)c1	inconclusive [inhibitor, single point]
Cc1cccc(CNC(=O)CN2C(=O)C3CCCCN3c3ccc(C(=O)N4CCCC4)cc32)c1 (configuration not stated)	inactive
Cc1ccc(/C=C/C(=O)O)cc1S(=O)(=O)N(C)CCO	active: 22.4 µM
O=C(C1=C[C@H](C2CCCCC2)C[C@H](OCCCCO)O1)N1CCOCC1	inconclusive [inhibitor, partial curve]
COc1ccc(NC(=S)Nc2ccc3nc(C)c(C)nc3c2)cc1	active: 22.4 µM
O=C(Nc1cccc(NC(=O)C2CCCO2)c1)C1CCCO1 (configuration not stated)	inconclusive [inhibitor, full curve, poor fit]
Cc1cnc(C(=O)OC(C)C(=O)Nc2cccc3ccccc23)cn1 (configuration not stated)	inactive
O=C(Nc1cccc(NC(=O)c2cccs2)c1)c1ccc(F)cc1	inactive
COc1cccc(CNC(=O)CN2C(=O)N(c3c(C)cccc3C)S(=O)(=O)c3ccccc32)c1OC	inactive
Cc1cc(Cl)nc(N)n1	inactive
O=C1CC(N2CCN(Cc3ccc4c(c3)OCO4)CC2)C(=O)N1c1ccccc1 (configuration not stated)	inconclusive [inhibitor, partial curve]
Cc1cc(=O)n2nc(N3CCCC(C(=O)NCc4ccc(Cl)cc4)C3)sc2n1 (configuration not stated)	inconclusive [inhibitor, full curve, poor fit]
CCC(N1CCOC1=O)S(=O)(=O)c1ccc(C)cc1 (configuration not stated)	inconclusive [inhibitor, full curve]
CN(C)c1ccc(NC2=C([N+](=O)[O-])CS(=O)(=O)C2)cc1	active: 2.24 µM
Cc1cc(=O)[nH]c(SCC2(O)C3CC4CC(C3)CC2C4)n1 (configuration not stated)	inconclusive [inhibitor, partial curve]

Reference: PubChem BioAssay AID485364 (National Center for Advancing Translational Sciences (NCATS), 2010)
